Source: the supplement of paper PMC8728848
The list shows a part of the results.

What was measured:
Test in all cases: glycan array binding signal (z-score within array); higher = stronger binding
Settings in all cases: glycan notation: IUPAC condensed, linker removed
[1] = biological target: Man(a1-2)Man(a1-3)[Man(a1-6)]Man(a1-6)[Man(a1-2)Man(a1-3)]Man(b1-4)GlcNAc(b1-4)GlcNAc
Procedure, shortened: (§1)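 Arrays were curated from the Consortium for Functional Glycomics database, 3228 in total, and kept only where the protein sequence was available. Binding is expressed as a within-array Z-score. This score was averaged across arrays of the same protein sequence at different concentrations or buffers and across linkers, and negative values can be read as non-binding.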

[2] = biological target: Man(a1-2)Man(a1-6)[Man(a1-3)]Man(a1-6)[Man(a1-2)Man(a1-2)Man(a1-3)]Man
Procedure, shortened: as §1

[3] = biological target: Man(a1-2)Man(a1-6)[Man(a1-3)]Man(a1-6)[Man(a1-2)Man(a1-2)Man(a1-3)]Man(b1-4)GlcNAc(b1-4)GlcNAc
Procedure, shortened: as §1

Man(a1-3)[Man(a1-6)]Man = biological target: Man(a1-3)[Man(a1-6)]Man
Procedure, shortened: as §1

[4] = biological target: Man(a1-3)[Man(a1-6)]Man(a1-6)[Man(a1-2)Man(a1-3)]Man(b1-4)GlcNAc(b1-4)GlcNAc
Procedure, shortened: as §1

[5] = biological target: Man(a1-3)[Man(a1-6)]Man(a1-6)[Man(a1-3)]Man
Procedure, shortened: as §1

[6] = biological target: Man(a1-3)[Man(a1-6)]Man(a1-6)[Man(a1-3)]Man(b1-4)GlcNAc(b1-4)GlcNAc
Procedure, shortened: as §1

[7] = biological target: Man(a1-3)[Man(a1-6)]Man(b1-4)GlcNAc(b1-4)GlcNAc
Procedure, shortened: as §1

Man(a1-6)Man = biological target: Man(a1-6)Man
Procedure, shortened: as §1

Man(b1-4)GlcNAc = biological target: Man(b1-4)GlcNAc
Procedure, shortened: as §1

Neu5Ac(a2-3)Gal = biological target: Neu5Ac(a2-3)Gal
Procedure, shortened: as §1

[8] = biological target: Neu5Ac(a2-3)Gal(b1-3)GalNAc
Procedure, shortened: as §1

[9] = biological target: Neu5Ac(a2-3)Gal(b1-3)GalNAc(b1-3)Gal(a1-4)Gal(b1-4)Glc
Procedure, shortened: as §1

[10] = biological target: Neu5Ac(a2-3)Gal(b1-3)GalNAc(b1-4)[Neu5Ac(a2-3)]Gal(b1-4)Glc
Procedure, shortened: as §1

[11] = biological target: Neu5Ac(a2-3)Gal(b1-3)GalNAc(b1-4)[Neu5Ac(a2-8)Neu5Ac(a2-3)]Gal(b1-4)Glc
Procedure, shortened: as §1

[12] = biological target: Neu5Ac(a2-3)Gal(b1-3)GalNAc6S
Procedure, shortened: as §1

[13] = biological target: Neu5Ac(a2-3)Gal(b1-3)GlcNAc
Procedure, shortened: as §1

[14] = biological target: Neu5Ac(a2-3)Gal(b1-3)GlcNAc(b1-3)Gal(b1-3)GlcNAc
Procedure, shortened: as §1

[15] = biological target: Neu5Ac(a2-3)Gal(b1-3)GlcNAc(b1-3)Gal(b1-4)GlcNAc
Procedure, shortened: as §1

[16] = biological target: Neu5Ac(a2-3)Gal(b1-3)GlcNAc(b1-3)GalNAc
Procedure, shortened: as §1

[17] = biological target: Neu5Ac(a2-3)Gal(b1-3)GlcNAc6S
Procedure, shortened: as §1

[18] = biological target: Neu5Ac(a2-3)Gal(b1-3)[Fuc(a1-4)]GlcNAc
Procedure, shortened: as §1

[19] = biological target: Neu5Ac(a2-3)Gal(b1-3)[Fuc(a1-4)]GlcNAc(b1-3)Gal(b1-3)[Fuc(a1-4)]GlcNAc
Procedure, shortened: as §1

[20] = biological target: Neu5Ac(a2-3)Gal(b1-3)[Fuc(a1-4)]GlcNAc(b1-3)Gal(b1-4)[Fuc(a1-3)]GlcNAc
Procedure, shortened: as §1

[21] = biological target: Neu5Ac(a2-3)Gal(b1-3)[Neu5Ac(a2-3)Gal(b1-4)]GlcNAc
Procedure, shortened: as §1

[22] = biological target: Neu5Ac(a2-3)Gal(b1-3)[Neu5Ac(a2-6)]GalNAc
Procedure, shortened: as §1

Neu5Ac(a2-3)Gal(b1-4)Glc = biological target: Neu5Ac(a2-3)Gal(b1-4)Glc
Procedure, shortened: as §1

[23] = biological target: Neu5Ac(a2-3)Gal(b1-4)GlcNAc
Procedure, shortened: as §1

[24] = biological target: Neu5Ac(a2-3)Gal(b1-4)GlcNAc(b1-2)Man(a1-3)[GlcNAc(b1-2)Man(b1-4)GlcNAc(b1-2)Man(a1-6)]Man(b1-4)GlcNAc(b1-4)GlcNAc
Procedure, shortened: as §1

[25] = biological target: Neu5Ac(a2-3)Gal(b1-4)GlcNAc(b1-2)Man(a1-3)[Neu5Ac(a2-6)Gal(b1-4)GlcNAc(b1-2)Man(a1-6)]Man(b1-4)GlcNAc(b1-4)GlcNAc
Procedure, shortened: as §1

[26] = biological target: Neu5Ac(a2-3)Gal(b1-4)GlcNAc(b1-3)Gal
Procedure, shortened: as §1

[27] = biological target: Neu5Ac(a2-3)Gal(b1-4)GlcNAc(b1-3)Gal(b1-3)GlcNAc
Procedure, shortened: as §1

[28] = biological target: Neu5Ac(a2-3)Gal(b1-4)GlcNAc(b1-3)Gal(b1-4)GlcNAc
Procedure, shortened: as §1

[29] = biological target: Neu5Ac(a2-3)Gal(b1-4)GlcNAc(b1-3)Gal(b1-4)GlcNAc(b1-3)Gal(b1-4)GlcNAc
Procedure, shortened: as §1

[30] = biological target: Neu5Ac(a2-3)Gal(b1-4)GlcNAc(b1-3)Gal(b1-4)[Fuc(a1-3)]GlcNAc
Procedure, shortened: as §1

[31] = biological target: Neu5Ac(a2-3)Gal(b1-4)GlcNAc(b1-3)GalNAc
Procedure, shortened: as §1

[32] = biological target: Neu5Ac(a2-3)Gal(b1-4)GlcNAc(b1-6)[Gal(b1-3)]GalNAc
Procedure, shortened: as §1

[33] = biological target: Neu5Ac(a2-3)Gal(b1-4)GlcNAc(b1-6)[Neu5Ac(a2-3)Gal(b1-3)]GalNAc
Procedure, shortened: as §1

[34] = biological target: Neu5Ac(a2-3)Gal(b1-4)GlcNAc6S
Procedure, shortened: as §1

[35] = biological target: Neu5Ac(a2-3)Gal(b1-4)[Fuc(a1-3)]GlcNAc
Procedure, shortened: as §1

[36] = biological target: Neu5Ac(a2-3)Gal(b1-4)[Fuc(a1-3)]GlcNAc(b1-3)Gal
Procedure, shortened: as §1

[37] = biological target: Neu5Ac(a2-3)Gal(b1-4)[Fuc(a1-3)]GlcNAc(b1-3)Gal(b1-4)GlcNAc
Procedure, shortened: as §1

[38] = biological target: Neu5Ac(a2-3)Gal(b1-4)[Fuc(a1-3)]GlcNAc(b1-3)Gal(b1-4)[Fuc(a1-3)]GlcNAc(b1-3)Gal(b1-4)[Fuc(a1-3)]GlcNAc
Procedure, shortened: as §1

[39] = biological target: Neu5Ac(a2-3)Gal(b1-4)[Fuc(a1-3)]GlcNAc(b1-3)GalNAc
Procedure, shortened: as §1

[40] = biological target: Neu5Ac(a2-3)Gal(b1-4)[Fuc(a1-3)]GlcNAc(b1-6)[Gal(b1-3)]GalNAc
Procedure, shortened: as §1

[41] = biological target: Neu5Ac(a2-3)Gal(b1-4)[Fuc(a1-3)]GlcNAc6S
Procedure, shortened: as §1

[42] = biological target: Neu5Ac(a2-3)Gal6S(b1-4)GlcNAc
Procedure, shortened: as §1

[43] = biological target: Neu5Ac(a2-3)Gal6S(b1-4)[Fuc(a1-3)]GlcNAc
Procedure, shortened: as §1

Neu5Ac(a2-3)GalNAc = biological target: Neu5Ac(a2-3)GalNAc
Procedure, shortened: as §1

[44] = biological target: Neu5Ac(a2-3)GalNAc(b1-4)GlcNAc
Procedure, shortened: as §1

B1: NanI (Corynebacterium diphtheriae), C6JSW7 (protein)
chain: MTNTLESNPMTTTTGALTITFATTCDGPLAHIPHHLDLNIIHGRIQGTTAHRRIDAEDPDGLDDGLPHHLCLSVDTTGTHLFIDGYEAFSTTQTEWFDTSELTLNPHGDLTIIDHQILNHAPTPRQARNLAPAAEPLVWFAGSHLSTRDTQRISHLTHGSLRLLMKTRGTGQGGVAFQAHTINGDLTLEIIDGTLIFSVRCHDEDYVRITAPGRWDDGQIYDVVIVCGRGATDIYVDGQQLIHSPGAAFFNDLSGELSVHIGTAASGVRLFGEVQSGMIYPHVFNHHQVQRLATVEPIATQALFDCLLDGAQSYRIPSLITTDSGVIIAGADKRVSIANDAPNDIDFVLRRSVDGGRTWQPPRTILQLPDTACVTDSVLLQDHTTGRIFAFLDQFPAGIGQPNAAFGTGFDADGNRIGHFADGSTCTMPREVDQLEASFFSDPHTAPPGIVFQHPSCHLWMLTSDDDGLTWSTPRDLTPDVKEEWMRFCGTSPGNGIQLQRDTHAGRLLIPMYYTKGDQFFAAALYSDDHGDTWHRGESPDLEMYESTLVEASDGSVLLWARNQHPSGAVAHARSTDGGHSWSQVTFNPNVPEIFSQPNALRVTNPDGIIFANASQLLPFRGRGVLRMSTNDGASWQHNRVFNPRHYVYQCMTQLPDGSIGLLWEREMQGLFFSIIPMTWIMQGYAL
[1]
  glycan array binding signal (z-score): 0.84
[2]
  glycan array binding signal (z-score): -0.202
[3]
  glycan array binding signal (z-score): 1.28
Man(a1-3)[Man(a1-6)]Man
  glycan array binding signal (z-score): -0.452
[4]
  glycan array binding signal (z-score): 0.959
[5]
  glycan array binding signal (z-score): -0.783
[6]
  glycan array binding signal (z-score): -0.413
[7]
  glycan array binding signal (z-score): -0.676
Man(a1-6)Man
  glycan array binding signal (z-score): -0.967
Man(b1-4)GlcNAc
  glycan array binding signal (z-score): -0.504
Neu5Ac(a2-3)Gal
  glycan array binding signal (z-score): -0.471
[8]
  glycan array binding signal (z-score): 0.181
[9]
  glycan array binding signal (z-score): -0.203
[10]
  glycan array binding signal (z-score): -0.56
[11]
  glycan array binding signal (z-score): 0.306
[12]
  glycan array binding signal (z-score): -0.092
[13]
  glycan array binding signal (z-score): -0.073
[14]
  glycan array binding signal (z-score): -0.243
[15]
  glycan array binding signal (z-score): -1.14
[16]
  glycan array binding signal (z-score): -0.319
[17]
  glycan array binding signal (z-score): 0.051
[18]
  glycan array binding signal (z-score): 0.093
[19]
  glycan array binding signal (z-score): -0.787
[20]
  glycan array binding signal (z-score): -0.18
[21]
  glycan array binding signal (z-score): -0.276
[22]
  glycan array binding signal (z-score): 0.006
Neu5Ac(a2-3)Gal(b1-4)Glc
  glycan array binding signal (z-score): -0.488
[23]
  glycan array binding signal (z-score): 0.357
[24]
  glycan array binding signal (z-score): -0.23
[25]
  glycan array binding signal (z-score): 0.111
[26]
  glycan array binding signal (z-score): -0.457
[27]
  glycan array binding signal (z-score): -0.458
[28]
  glycan array binding signal (z-score): -0.037
[29]
  glycan array binding signal (z-score): -0.3
[30]
  glycan array binding signal (z-score): 0.261
[31]
  glycan array binding signal (z-score): -1.01
[32]
  glycan array binding signal (z-score): 0.124
[33]
  glycan array binding signal (z-score): -0.187
[34]
  glycan array binding signal (z-score): 0.664
[35]
  glycan array binding signal (z-score): 0.474
[36]
  glycan array binding signal (z-score): -0.247
[37]
  glycan array binding signal (z-score): 0.961
[38]
  glycan array binding signal (z-score): -0.078
[39]
  glycan array binding signal (z-score): 3.03
[40]
  glycan array binding signal (z-score): 0.923
[41]
  glycan array binding signal (z-score): 1.63
[42]
  glycan array binding signal (z-score): -0.864
[43]
  glycan array binding signal (z-score): -0.34
Neu5Ac(a2-3)GalNAc
  glycan array binding signal (z-score): -0.251
[44]
  glycan array binding signal (z-score): -0.508
